{"source": "PubChem BioAssay AID1347073", "about": "(National Center for Advancing Translational Sciences (NCATS), 2019)", "note": "Hit rate of the full screen: of about 45,000 compounds, about 200 (0.44%) were called active. Roughly 7% stayed inconclusive and do not appear here. The call rests on the fitted dose curve; in most records, active means well fitted activation curve with a large enough effect; inconclusive means small, poorly fitted or top-dose-only effect; inactive means no such curve, though single readings can be large or run the other way. This is one part of the list."}
{"assay": "qHTS of TDP-43 Inhibitors: NCGC Sytravon Library Screen; further: 0% is about no effect; nearly all actives have a fitted effect of over 55% in size", "details": "yeast TDP-43 toxicity rescue, BacTiter-Glo growth, 24 h; series mostly up to 46.1 µM; growth rescue (activation): at the top concentration", "procedure,_shortened": "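TDP-43-expressing yeast, pregrown in raffinose, seeded at OD600 0.02 in galactose medium with compound for 24 hr at 30 deg C. Growth read by BacTiter-Glo luminescence, so rescue of toxicity appears as activation.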"}
{"smiles": "COc1cc(C(=O)O/N=C2/C=C(C)C(=O)C=C2C)cc(OC)c1OC", "growth rescue (activation)": "inactive: 3.44%"}
{"smiles": "CC(C)C(c1nnnn1Cc1ccc(F)cc1)N1CCN(c2ccc(O)cc2)CC1", "note": "(stereo not drawn)", "growth rescue (activation)": "inactive: 4.99%"}
{"smiles": "C=CCn1cnnc1SCC(=O)N(C)CC1COc2ccccc2O1", "note": "(stereo not drawn)", "growth rescue (activation)": "inactive: 15.8%"}
{"smiles": "O=c1[nH]c2cc([N+](=O)[O-])c(NCCO)c([N+](=O)[O-])c2[nH]1", "growth rescue (activation)": "inactive: -15.9%"}
{"smiles": "CN(CC(=O)Nc1ccc(Cl)c(Cl)c1)C(=O)/C=C/c1ccc(F)cc1", "growth rescue (activation)": "inactive: 2.97%"}
{"smiles": "CC(Sc1nnc(Cc2cccs2)n1C1CC1)C(=O)NC1CCS(=O)(=O)C1", "note": "(stereo not drawn)", "growth rescue (activation)": "inactive: 9.47%"}
{"smiles": "CN(C(=O)c1ccccc1C(=O)OCC(=O)NCc1cccs1)C1CCCCC1", "growth rescue (activation)": "inactive: 5.94%"}
{"smiles": "COc1cccc(/C=N/Nc2nccnc2Cl)c1O", "growth rescue (activation)": "inactive: 22%"}
{"smiles": "CCOc1cccc(NC(=O)CSc2sc3c(O)cc(=O)[nH]c3c2C#N)c1", "growth rescue (activation)": "inactive: 11.9%"}
{"smiles": "O=C(CN(CCc1ccccc1)S(=O)(=O)c1ccc(Br)cc1)N/N=C/c1ccccc1C(=O)O", "growth rescue (activation)": "inactive: -0.575%"}
{"smiles": "COc1ccc(NC(=O)CN2C(=O)C(c3ccccc3)=NC23CCC(C)CC3)cc1Cl", "note": "(stereo not drawn)", "growth rescue (activation)": "inactive: 13.3%"}
{"smiles": "O=c1cc(O)c2sc3nc4c(c(C(F)(F)F)c3c2[nH]1)CCCCC4", "growth rescue (activation)": "inactive: 19.2%"}
{"smiles": "COc1ccccc1C(=O)NNC(=O)C(=O)NC(C)C", "growth rescue (activation)": "inactive: -1.73%"}
{"smiles": "NC(CCc1ccccc1)c1csc(Nc2ccc(C(=O)c3ccccc3)cc2)n1", "note": "(stereo not drawn)", "growth rescue (activation)": "inactive: 9.46%"}
{"smiles": "COc1ccc(S(=O)(=O)NC2CCCCC2)cc1C(=O)N1CCCCC1", "growth rescue (activation)": "inactive: -3.47%"}
{"smiles": "COc1ccc([N+](=O)[O-])cc1NC(=O)Nc1ccc(OC)c(OC)c1", "growth rescue (activation)": "inactive: 0.82%"}
{"smiles": "COc1cccc(/C(O)=C/c2nc3ccc(C(=O)NCCc4cccc(C)c4)cc3[nH]c2=O)c1", "growth rescue (activation)": "inactive: -17.3%"}
{"smiles": "COc1ccc(C(C)(C)C)cc1NC(=O)CCNC(=O)c1ccco1", "growth rescue (activation)": "inactive: -2.33%"}
{"smiles": "CNc1ccc(C2(O)C(=O)c3ccccc3C2=O)cc1", "growth rescue (activation)": "inactive: 3.74%"}
{"smiles": "C=C(C)C(=O)Nc1cccc(C(C)=O)c1", "growth rescue (activation)": "inactive: 26.3%"}
{"smiles": "Cc1ccc(NC(=O)CNCc2ccc(Cl)cc2Cl)cc1S(=O)(=O)N(C)C", "growth rescue (activation)": "inactive: 3.52%"}
{"smiles": "O=C(COc1nsnc1N1CCOCC1)Nc1ccc(Br)cc1", "growth rescue (activation)": "inactive: 1.38%"}
{"smiles": "COc1cc(NC(=O)c2ccc3c(SCC(=O)O)c4c(nc3c2)CCCC4)cc(OC)c1OC", "growth rescue (activation)": "inactive: 9.57%"}
{"smiles": "Cc1ccc(Nc2nc(-c3ccc(O)c(O)c3)cs2)nc1", "growth rescue (activation)": "inactive: -15.2%"}
{"smiles": "Cc1ccc(NC(=O)c2ccccc2NS(=O)(=O)c2ccc(F)cc2)cc1S(=O)(=O)N1CCCCC1", "growth rescue (activation)": "inactive: 5.66%"}
{"smiles": "CCOCc1nnc(NC(=O)CS(=O)(=O)c2ccc(C)cc2)s1", "growth rescue (activation)": "inactive: -5.01%"}
{"smiles": "Cc1ccc(CN(CC(=O)NCc2ccc3c(c2)OCO3)C(=O)c2csnn2)cc1", "growth rescue (activation)": "inactive: -4.62%"}
{"smiles": "Cc1ccc(-c2n[nH]c(=S)n2/N=C/c2c(C)[nH]n(-c3ccccc3)c2=O)cc1", "growth rescue (activation)": "inactive: 13.3%"}
{"smiles": "Cc1nc(SCC(=O)N2CCNC2=O)c2ccccc2n1", "growth rescue (activation)": "inactive: 17.5%"}
{"smiles": "Cc1cc(NC(=O)CN2CCN(C)CC2)no1", "growth rescue (activation)": "inactive: -11.2%"}
{"smiles": "CCOc1ccccc1CN1CCN(C2CCOCC2)CC1CCO", "note": "(stereo not drawn)", "growth rescue (activation)": "inactive: 14.4%"}
{"smiles": "CSC1=C(C#N)C(C)CC(=O)N1", "note": "(stereo not drawn)", "growth rescue (activation)": "inactive: 13.5%"}
{"smiles": "CCOCC(=O)Nc1ccc([N+](=O)[O-])cc1Cl", "growth rescue (activation)": "inactive: 1.7%"}
{"smiles": "O=C(CC(=O)c1ccccc1)Nc1ccc(Cl)cc1", "growth rescue (activation)": "inactive: 7.07%"}
{"smiles": "CC(=O)Nc1ccc(S(=O)(=O)Nc2cccc(NC(=O)c3ccco3)c2)cc1", "growth rescue (activation)": "inactive: 12.7%"}
{"smiles": "Cc1ccccc1OCCC(=O)Nc1ccc(Cl)cc1F", "growth rescue (activation)": "inactive: 14.8%"}
{"smiles": "O=C(NNC1=NCCCCC1)Nc1cccc(Cl)c1", "growth rescue (activation)": "inactive: 8.07%"}
{"smiles": "CCC(=O)NC(=S)Nc1ccc2oc(-c3ccc(OC)cc3)nc2c1", "growth rescue (activation)": "inactive: -5.67%"}
{"smiles": "CCCn1c(-c2cccc(F)c2)nc2c1c(=O)[nH]c(=O)n2Cc1ccccc1", "growth rescue (activation)": "inactive: -2.15%"}
{"smiles": "COc1cccc(CN2CCNC(=O)C2CC(=O)N(Cc2cnn(C)c2)C(C)C)c1", "note": "(stereo not drawn)", "growth rescue (activation)": "inactive: -0.466%"}
{"smiles": "CCc1ccc(N2CC(C(=O)Nc3nc4ccc(S(C)(=O)=O)cc4s3)CC2=O)cc1", "note": "(stereo not drawn)", "growth rescue (activation)": "inactive: 10.1%"}
{"smiles": "Cc1ccc(S(=O)(=O)N2CCN(CC(=O)NC3CCCc4ccccc43)CC2)cc1C", "note": "(stereo not drawn)", "growth rescue (activation)": "inactive: 19.2%"}
{"smiles": "COc1ccc(C2CC(=O)c3cnc(NC(=O)c4ccccc4)nc3C2)c(OC)c1", "note": "(stereo not drawn)", "growth rescue (activation)": "inactive: 26.6%"}
{"smiles": "COc1ccc(Cc2nnc(NC(=O)C3CC(=O)N(c4ccccc4C)C3)s2)cc1OC", "note": "(stereo not drawn)", "growth rescue (activation)": "inactive: -1.32%"}
{"smiles": "COc1ccc(CNC(=O)CN(C(=O)c2snc(C(N)=O)c2N)c2cccc(F)c2)cc1", "growth rescue (activation)": "inactive: 7.49%"}
{"smiles": "CCOc1ccc(NC(=S)N2CCN(S(C)(=O)=O)CC2)cc1", "growth rescue (activation)": "inactive: 6.57%"}
{"smiles": "CCOC(=O)c1[nH]ncc1CN1CCCC(C(=O)c2ccc(SC)cc2)C1", "note": "(stereo not drawn)", "growth rescue (activation)": "inactive: -19.3%"}
{"smiles": "O=C(CCCNC(=O)c1ccc(Cl)cc1)Nc1ccccc1F", "growth rescue (activation)": "inactive: -6.12%"}
{"smiles": "O=C(N/N=C/c1cccs1)c1cc(-c2ccc(Cl)s2)[nH]n1", "growth rescue (activation)": "inactive: 9.68%"}
{"smiles": "CCC(=O)N1CCc2cc(Br)cc(S(=O)(=O)CCC(=O)NCC3CCCO3)c21", "note": "(stereo not drawn)", "growth rescue (activation)": "inactive: -9.21%"}
{"smiles": "O=C(COC(=O)Cc1ccccc1[N+](=O)[O-])NCc1ccc(F)cc1", "growth rescue (activation)": "inactive: 7.7%"}
{"smiles": "Cc1ccc(C(=O)N/N=C\\c2ccc([N+](=O)[O-])s2)cn1", "growth rescue (activation)": "inactive: 26.4%"}
{"smiles": "CC(=O)NCC(=O)N1CCCC(C(=O)c2ccc(-c3ccccc3)c(F)c2)C1", "note": "(stereo not drawn)", "growth rescue (activation)": "inactive: -2%"}
